# Measured values: paper PMC6919601, “Identification of Plasmodium dipeptidyl aminopeptidase allosteric inhibitors by high throughput screening” (PLoS ONE, 2019)
# In all, about 110,000 compounds went through this assay and about 230 (0.21%) showed an effect of 50% or more. Some of the results follow.
# Target: DPAP1 (Plasmodium falciparum, UniProt Q8IIJ9)
# Assay: primary screen, percent inhibition; read by cleavage of a fluorogenic dipeptide substrate; higher = more effect of the substance
# Parameters: species or system P. falciparum D10 trophozoite lysates; single well
# 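Note: 30 min substrate incubation versus DMSO and 10 µM JCP410 controls.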
# Sequence of DPAP1 (Q8IIJ9 whole entry, looked up): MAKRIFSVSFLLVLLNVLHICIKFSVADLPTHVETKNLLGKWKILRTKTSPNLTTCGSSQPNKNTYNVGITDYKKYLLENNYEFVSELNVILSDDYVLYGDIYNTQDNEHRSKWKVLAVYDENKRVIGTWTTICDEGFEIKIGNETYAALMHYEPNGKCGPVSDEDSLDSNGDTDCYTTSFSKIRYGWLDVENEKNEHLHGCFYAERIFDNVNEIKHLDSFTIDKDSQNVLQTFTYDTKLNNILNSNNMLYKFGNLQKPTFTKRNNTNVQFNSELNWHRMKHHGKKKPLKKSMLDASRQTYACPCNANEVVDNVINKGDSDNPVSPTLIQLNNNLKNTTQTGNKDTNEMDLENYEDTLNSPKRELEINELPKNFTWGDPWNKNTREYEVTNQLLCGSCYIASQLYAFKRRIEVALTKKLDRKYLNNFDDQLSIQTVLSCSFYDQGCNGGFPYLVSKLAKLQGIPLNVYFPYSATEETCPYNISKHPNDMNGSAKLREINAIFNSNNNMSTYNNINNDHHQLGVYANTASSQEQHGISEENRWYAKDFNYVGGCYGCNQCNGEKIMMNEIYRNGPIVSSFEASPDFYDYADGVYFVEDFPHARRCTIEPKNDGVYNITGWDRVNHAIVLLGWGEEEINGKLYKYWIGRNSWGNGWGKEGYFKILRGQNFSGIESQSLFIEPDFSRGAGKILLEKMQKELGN
row,Structure (SMILES),% Inhibition @ 10 uM [%]
1,Cc1c(C(=O)NCc2ccccc2)oc2c1C(=O)CCC2,-3.34
2,CCOC(=O)C1=C(N)c2ccccc2CC1C(C)C (centres unmarked),4.42
3,CCCCn1c(CCC(=O)O)ccc1-c1ccc(C)cc1,-0.0626
4,CCC(C)NC(=O)c1cc2sc(Cl)cc2n1CC (centres unmarked),-6.68
5,O=C(NC(=S)N1CCOCC1)c1ccccc1C(=O)OCC(F)(F)F,-1.5
6,C=CCNc1cc(=O)n(Cc2ccccc2)c(=O)[nH]1,2.4
7,O=C1CSC(c2ccc(Br)cc2)N1c1nc2ccccc2s1 (centres unmarked),-0.222
8,CCn1c(CN2CC(C)OC(C)C2)nc2c1c(=O)n(C)c(=O)n2C (centres unmarked),-0.499
9,Cc1sc(NC(=O)c2ccc(COc3ccc(F)cc3)o2)nc1-c1ccccc1,3.72
10,Cc1ccc2c(c1)cc1c(=O)n(CC(=O)NCc3ccc(F)cc3)nc(C)n12,3.29
11,CCC(C(=O)Nc1c2c(nn1-c1ccccc1C)CS(=O)(=O)C2)c1ccccc1 (centres unmarked),-1.75
12,NC(=O)c1c(NC(=O)c2cc(=O)c3cc(Cl)ccc3o2)sc2c1CCCC2,-3.24
13,CCOC(=O)c1c(C)oc2ncnc(N3CCCC3)c12,6.36
14,O=C(NCc1ccc2c(c1)OCO2)C(=O)NCC(c1cccnc1)N1CCOCC1 (centres unmarked),-5.6
15,Cn1c(CNC23CC4CC(CC(C4)C2)C3)c(-c2ccccc2)c2cc([N+](=O)[O-])ccc21,1.24
16,Cc1cc(=O)n2nc(N3CCCC(C(=O)NC(C)C45CC6CC(CC(C6)C4)C5)C3)sc2n1 (centres unmarked),-0.281
17,CC(C)(C)Nc1nc(Oc2ccc(CC(N)=O)nn2)nc(N2CCOCC2)n1,-1.31
18,CCOc1cc(-c2cc(N)n(S(=O)(=O)c3ccc(F)c(C)c3)n2)cc(OCC)c1OCC,7.21
19,CC(C)Nc1nc(N2CCOCC2)nc(N(c2ccccc2)c2ccccc2)n1,5.77
20,CCOC(=O)c1c(C)[nH]c(C)c1S(=O)(=O)N(C)CC(=O)NCc1ccc2c(c1)OCO2,0.359
21,O=C(NCCSc1nnnn1-c1ccccc1)c1ccc(Cl)cc1Cl,-1.11
22,COc1c(Cl)cc(Cl)cc1-c1nnc2ccc3ccccc3n12,1.13
23,COc1ccccc1OCc1cccc(C(=O)N2N=C(C(F)F)CC2(O)C(F)F)c1 (centres unmarked),-4.72
24,COc1ccc(Br)cc1S(=O)(=O)NC1CC(C)(C)NC(C)(C)C1,-4.02

row,Structure (SMILES),% Inhibition @ 10 uM [%]
1,CCn1nccc1C(=O)Nc1ccn(Cc2c(F)c(F)cc(F)c2F)n1,0.385
2,CCn1c(O)c(C2=NCCCCC2)c2ccccc21,0.266
3,N#CCNC(=O)[C@H](CSCc1ccccc1)NC(=O)c1cc2ccccc2o1,-6.98
4,O=S(=O)(Nc1ccc(S(=O)(=O)Nc2cccc3ccccc23)cc1)c1ccc(Cl)cc1,7.71
5,COc1cc(OC)cc(C(=O)NC2CCC(NC(=O)c3cc(OC)cc(OC)c3)CC2)c1 (centres unmarked),-5.6
6,COC(=O)c1c(C)oc2ccc(OCc3cccc(F)c3)cc12,3.04
7,O=Cc1cn(CC(=O)N2CCCC2)c2ccccc12,2.35
8,CCOc1cccc(C(=O)Nc2nn3c(-c4ccccc4C)nnc3s2)c1,-3.73
9,CCc1ccc(OCC(=O)Nc2ccc(S(=O)(=O)Nc3cc(C)on3)cc2)c(Br)c1,11.6
10,CN(CCCNS(=O)(=O)c1ccc(-c2cc(C(F)(F)F)no2)s1)Cc1ccccc1,-0.342
11,COc1ccc(/C=N/c2sc3c(c2C#N)CCC(C)C3)cc1OC (centres unmarked),-0.597
12,CCC[C@H](NC(=O)C1(NC(=O)OC(C)(C)C)CCCCC1)C(=O)c1nnc(-c2ccco2)o1,-6.46
13,CCOC(=O)N1CCN(C(=O)c2cn(C)c(=O)c3c2c2ccccc2n3C)CC1,4.5
14,Cc1ccc(CS(=O)(=O)CCC(=O)NCCN(C)Cc2ccccc2)cc1,1.62
15,CC1=NN(C(=O)c2ccccc2N)C(O)(c2ccccc2)C1 (centres unmarked),-3.04
16,CCOC(=O)c1c(C)[nH]c(C)c1S(=O)(=O)N1CCN(C(=O)OCC)CC1,-1.06
17,O=C(NCc1ccccc1Cl)C1=CSCCO1,0.0882
18,COc1ccc(Br)cc1/C=c1/sc2nc(=O)c(Cc3ccc(F)cc3)nn2c1=O,1.23
19,CCCCP(=O)(O)c1ccccc1,-0.771
20,CCOC(=O)N1CCN(Cc2nc3c(c(=O)n(C)c(=O)n3C)n2CCC(C)C)CC1,-5.1
21,COC(=O)/C=C/c1ccc(OC)c(OC)c1,3.39
22,Cc1ccc(C(=O)Nc2cccc3cccnc23)cc1,-4.02
23,c1ccc(Cc2nc3sc4c(c3c3nnnn23)CCCC4)cc1,1.52
24,COC(=O)c1ccc(OCC2c3cc(OC)c(OC)cc3CCN2C(=O)CCc2ccccc2)cc1 (centres unmarked),1.02

row,Structure (SMILES),% Inhibition @ 10 uM [%]
1,CC(NC(=O)COc1nsnc1N1CCOCC1)c1ccccc1 (centres unmarked),2.99
2,CC(C)CCn1c(CN2CCN(Cc3ccccc3)CC2)nc2c1c(=O)n(C)c(=O)n2C,0.317
3,CN1C(=O)c2ccccc2C(C(=O)N2CCCCCC2)C1c1c[nH]c2ccccc12 (centres unmarked),2.93
4,CCOC(=O)c1cc(-c2ccccc2)sc1NC(=O)/C(C#N)=C/c1ccc(OC)cc1,-2.87
5,CCN1CCC(NCC2CCCO2)CC1 (centres unmarked),-1.81
6,O=C(c1oc(=O)c2ccccc2c1-c1ccccc1)N1CCCCCC1,3.53
7,CCCCN(C)C(=O)C1c2ccccc2C(=O)N(CCOC)C1c1c[nH]c2ccccc12 (centres unmarked),5.62
8,C=CCNC(=O)c1cc(-c2ccc(OCC)cc2)nc2ccccc12,0.0265
9,O=C(Nc1ccc(Cl)cc1C(=O)NCCCCO)c1ccco1,-5.31
10,N=C1/C(=C\c2ccc(SCc3ccco3)o2)C(=O)N=C2SC(c3ccccc3)=NN12,11.2
11,COc1cccc(OCc2cc(C3C(C#N)=C(N)OC4=C3C(=O)CC(C)(C)C4)ccc2OC)c1 (centres unmarked),1.35
12,COc1ccc(-c2cc(C(F)(F)F)nc(SCC(=O)Nc3cccnc3)n2)cc1OC,44.1
13,COC(=O)c1ccc(CSc2ncnc3c2sc2nc(N4CCOCC4)c4c(c23)CCCC4)o1,1.31
14,O=C1CC(c2ccc(Cl)cc2Cl)C2=C(CC(c3ccccc3Cl)CC2=O)N1 (centres unmarked),6.91
15,COc1ccc(/C=C(\NC(=O)c2ccc(OC)cc2)C(=O)NC(C)C(=O)O)cc1 (centres unmarked),-2.87
16,O=C(c1ccc2nc(N3CCOCC3)sc2c1)N1CCN(C(=O)c2ccco2)CC1,1.03
17,O=C(C1=C(O)C(=O)N(c2ccccc2)C1c1ccc2c(c1)OCO2)c1ccccc1 (centres unmarked),2.22
18,NC(=O)c1c(NC(=O)c2ccc3c(c2)OCO3)sc2c1CCCCCC2,0.316
19,COc1ccc2nc(NC(=O)C(Cc3ccccc3)N3C(=O)c4ccccc4C3=O)sc2c1 (centres unmarked),-3.14
20,Cc1ccc(Nc2[nH]nc(C)c2[N+](=O)[O-])c(C)c1,3.31
21,COc1ccc(N2C(=N)S/C(=C\c3ccc(-c4ccc5c(c4)C(=O)NC5=O)o3)C2=O)cc1,0.147
22,CN1CCN(S(=O)(=O)c2ccc(-c3ccc(Cl)cc3)cc2)CC1,-0.123
23,COCCNC(=S)N(CCc1c(C)[nH]c2ccc(F)cc12)Cc1cc(OC)c(OC)c(OC)c1,-0.58
24,CC(=O)C(C(=O)c1ccccc1)C1c2ccccc2Oc2ccccc21 (centres unmarked),0.685

row,Structure (SMILES),% Inhibition @ 10 uM [%]
1,COc1ccc(/C=C2/SC(=O)N(CC(=O)NC(C)(C)C)C2=O)cc1OC,-2.99
2,O=S(=O)(NCCCN1CCOCC1)c1cc(Br)c(Br)s1,-0.458
3,CCOc1cc(-c2nc3c(=O)n(C)c(=O)nc-3n(C)n2)ccc1OC(C)C,-6.5
4,CC1(C)OC(=O)C(=Cc2ccc(-c3ccccc3)o2)C(=O)O1,3.25
5,O=S(=O)(c1ccc(Cl)cc1Br)N1CCOCC1,4.38
6,CCN(c1cccc(C)c1)S(=O)(=O)c1cnc(Cl)c(Br)c1,3.24
7,CSc1ncc(C(=O)NCCCN2CCc3ccccc3C2)c(C)n1,2.25
8,Cc1ccc(C(=O)C2=C(O)C(=O)N(CCCn3ccnc3)C2c2cccc(F)c2)cc1 (centres unmarked),-3.23
9,CCOc1cc(/C=C2/C(=N)N3OC(C)=CC3=NC2=O)ccc1OCc1ccccc1Cl,-3.23
10,O=C(NCCc1ccc(F)cc1)C1c2ccccc2Oc2ccccc21,-3.14
11,O=C(NCc1cccc(Cl)c1)C1CCN(c2nc3ccccc3n3cccc23)CC1,3.44
12,CCOc1cc(/C=C2/NC(=O)N(Cc3ccc(C)cc3)C2=O)ccc1OC,5.66
13,O=C(/C=C/c1cccc([N+](=O)[O-])c1)N1CCOCC1,1.35
14,COc1cccc2c1cc1c(=O)n(CC(=O)NCC(C)c3ccccc3)nc(C)n12 (centres unmarked),-1.7
15,Cc1nn(-c2ccccc2)c(-n2cccc2)c1C(=O)NCC1CCCO1 (centres unmarked),0.137
16,COc1ccc(Cl)cc1-n1nnc(S(=O)(=O)c2ccc(C)cc2)c1C,-7.62
17,COc1cccc(NC2(c3nnnn3-c3c(C)cccc3C)CCCC2)c1,-8.3
18,CC(=O)Nc1nc2c(s1)CC(C(C)(C)C)CC2 (centres unmarked),-2.65
19,O=C(c1ccc(F)cc1)N1CCN(c2ccc(Cl)cc2)CC1,-2.17
20,Cc1ccc2[nH]c(-c3cccc([N+](=O)[O-])c3)nc2c1,2.76
21,CSc1nc(Oc2ccc(C)c(C)c2)cc(-n2ncc(C(N)=O)c2N)n1,-0.116
22,CCN(CC)CCC/N=c1/c(-c2ccc(C(C)C)cc2)c(O)c1=O,-5.3
23,CCN(CC)c1ccc(/C=C2\SC(Nc3ccc(F)cc3)=NC2=O)o1,12.1
